Reference: PubChem BioAssay AID624296 (National Center for Advancing Translational Sciences (NCATS), 2012)
In all, about 350,000 compounds went through this assay and about 9,900 (2.8%) were called active. Inconclusive results, whose numbers are uncertain, are shown with a selection of clear calls. Calls come from the whole dose curve; as a rule, active = well fitted activation curve with a large enough effect; inconclusive = small, poorly fitted or top-dose-only effect; inactive = no such curve, though single readings can be large or run the other way. No potency is given beside an inconclusive call; the fits are too rough.

assay: A quantitative high throughput screen for small molecules that induce DNA re-replication in MCF 10a normal breast cells.; note: nearly all actives have a fitted effect of over 50% in size; for activity, positive = re-replication: % of control where 0% means no effect; conditions: MCF 10A DNA re-replication, Hoechst nuclear intensity, 48 h; activity, positive = re-replication: at 46.1 µM (top of the series)
Potency is the fitted concentration of half-maximal effect; tags give direction and shape of the fitted curve.

| SMILES | Potency | activity, positive = re-replication |
| --- | --- | --- |
| CCC(C)Nc1c2c(nc3c(-c4ccccc4)c(C)nn13)CCC2 (stereo not drawn) | inconclusive [activator, single point] |  |
| CC(C)COC(=O)c1cccc2c1-c1ccccc1/C2=N\O | active: 18.4 µM |  |
| O=C(Nc1ccc(F)cc1F)c1cc2n(n1)C(C(F)(F)F)C1CCCCC1N2 (stereo not drawn) | inconclusive [activator, full curve] |  |
| C[C@H](NC(=O)c1ccc(Cl)cc1)C(=O)OCn1nnc2ccccc2c1=O | inconclusive [activator, single point] |  |
| Cc1ccc(NC(=O)CCl)cc1S(=O)(=O)N1CCCCCC1 | inconclusive [activator, single point] |  |
| O=C(Cn1nnc2ccccc21)N/N=C\c1cccs1 | inconclusive [activator, single point] |  |
| O=C(Nc1ccc(Br)cc1)c1cccc(S(=O)(=O)Nc2cnc3ccccc3c2)c1 | inconclusive [activator, single point] |  |
| CCC(=O)Nc1cccc(NC(=O)CSc2nnnn2C2CCCC2)c1 | inconclusive [activator, full curve] |  |
| COc1ccc(-c2c([C@H]3[C@@H]4C=CCC[C@@]4(C)C(=O)N3Cc3ccccc3)ccc3ccccc23)cc1OC | inconclusive [activator, single point] |  |
| CN(Cc1ccccc1)c1cc(Cl)nc(N)n1 | inconclusive [activator, partial curve, poor fit] |  |
| Clc1nssc1=Nc1ccc(Br)cc1 | inconclusive [activator, single point] |  |
| Cc1ccc(S(=O)(=O)N2CCN(S(=O)(=O)N3CCCCCC3)CC2)cc1 | inconclusive [activator, single point] |  |
| Cc1ccccc1C(=NCCCN(C)C)c1ccccc1C | inactive |  |
| COc1ccc(Cl)cc1-c1nc(SCC(=O)NC2CC2)n[nH]1 | inconclusive [activator, single point] |  |
| Cc1c(NS(=O)(=O)c2cccc(C(=O)Nc3ccc(SC(F)F)cc3)c2)c(=O)n(-c2ccccc2)n1C | inconclusive [activator, single point] |  |
| COc1cccc(-n2c(SCC(=O)NC3CCCCC3)nc3n[nH]c(C)c3c2=N)c1 | inconclusive [activator, single point] |  |
| CCCCN1C(N)=NC[C@@H]1C(C)O (stereo partly drawn) | inactive |  |
| CC(=O)Nc1ncc(Cc2cccc(Cl)c2)s1 | inactive |  |
| COc1cc(C(=O)COC(=O)c2c(C)noc2C)cc(OC)c1OC | inactive |  |
| COc1ccc(-c2cc(C(F)(F)F)n3nc(C(=O)N4CCN5CCCC5C4)cc3n2)cc1OC (stereo not drawn) | active: 11.6 µM |  |
| C=CCn1c(SCC(=O)c2ccc(Cl)s2)nc2ccccc2c1=O | inconclusive [activator, partial curve, poor fit] |  |
| CC(C)CNC(=O)COC(=O)CCC(=O)c1cccs1 | inactive |  |
| O=C(O)CC/C(=N\Nc1ccc([N+](=O)[O-])cc1S(=O)(=O)N1CCOCC1)c1cccs1 | inconclusive [activator, single point] |  |

| SMILES | Potency | activity, positive = re-replication |
| --- | --- | --- |
| CCOC(=O)N1CCC(Nc2cccc(SC)c2)CC1 | inactive |  |
| S=c1[nH]cnc2scc(-c3ccccc3)c12 | inconclusive [activator, single point] |  |
| O=C(C[C@H]1C/C=C\CC[C@H](Cc2ccc(F)cc2)C(=O)O[C@H](c2ccccc2)CNC1=O)N[C@H](CO)Cc1ccccc1 | inconclusive [activator, partial curve, poor fit] |  |
| COc1ccc2nc(SC(C)C(=O)NCC(=O)Nc3ccc(F)c(F)c3F)[nH]c2c1 (stereo not drawn) | inactive |  |
| COc1ccc2cc(-c3csc(-c4cccnc4)n3)ccc2c1 | active: 14.6 µM |  |
| Cc1ccc(CN2CCC(c3cc(-c4ccc(Cl)cc4)n[nH]3)CC2)cc1 | inconclusive [activator, single point] |  |
| O=C(Nc1ccccc1)c1ccc(-c2ccccc2C(F)(F)F)o1 | inconclusive [activator, partial curve, poor fit] |  |
| CC1CN(S(=O)(=O)c2ccc(C(=O)NCCCn3ccnc3)cc2)CC(C)O1 (stereo not drawn) | active: 3.66 µM |  |
| O=C(Cc1ccccc1)Nc1ccccc1N1CCN(c2ccccc2)CC1 | inconclusive [activator, single point] |  |
| CC(C)COC(=O)c1ccc2c(c1O)C(=O)c1ccccc1C2=O | inconclusive [activator, single point] |  |
| Cc1ccccc1N(C(=O)c1csnn1)C(C(=O)NC(C)(C)C)c1cccs1 (stereo not drawn) | inconclusive [activator, single point] |  |
| CC1=NN(c2nc(-c3ccc(Cl)cc3)cs2)C(=O)C1 | inconclusive [activator, single point] |  |
| Cc1oc2c(cc(NS(=O)(=O)c3ccc4c5c(cccc35)C(=O)N4)c3ccccc32)c1C(=O)OC(C)C | inconclusive [activator, partial curve] |  |
| O=C(NC1CC1)c1cccc2c1C(=O)c1ccc(N3CCC(Cc4ccccc4)CC3)cc1S2(=O)=O | inconclusive [activator, partial curve, poor fit] |  |
| CCCc1nc(SCC(=O)Nc2cc(C)on2)c2ccccc2n1 | inconclusive [activator, single point] |  |
| CCN(CC)S(=O)(=O)c1ccc(NC(=S)NC(=O)C(C)C)cc1 | inactive |  |
| O=C1CC(c2ccc(F)cc2)c2cc3c(cc2N1)CCC3 (stereo not drawn) | inconclusive [activator, single point] |  |
| OCCC1CN(Cc2cnc(-c3cccc4ccccc34)nc2)CCN1C1CCCCC1 (stereo not drawn) | inactive |  |
| CCOc1ccc(S(=O)(=O)Nc2cccc(OC)c2)cc1 | inconclusive [activator, single point] |  |
| COc1ccc2cc3cc(C(=O)NCc4ccc5c(c4)OCO5)oc3nc2c1 | inactive |  |
| O=C(NCc1cccs1)c1nc2c(nnn2Cc2ccccc2Cl)c(=O)[nH]1 | inconclusive [activator, full curve, poor fit] |  |
| Cc1noc(C)c1NC(=O)N(C)C[C@H]1Oc2ccc(NS(=O)(=O)c3c(C)noc3C)cc2C(=O)N([C@H](C)CO)C[C@@H]1C | inactive |  |
| Cc1c(/C=N\NC(=O)c2csc3ccccc23)cnn1C | inconclusive [activator, partial curve, poor fit] |  |

| SMILES | Potency | activity, positive = re-replication |
| --- | --- | --- |
| Cc1nc(SCc2nc3ccc(C(=O)c4ccccc4)cc3[nH]2)c2oc3ccccc3c2n1 |  | inconclusive: 32.3% [activator] |
| N#Cc1c(OCC(=O)c2ccccc2)nc2c(c1-c1ccco1)CCc1ccccc1-2 | inconclusive [activator, partial curve, poor fit] |  |
| COc1cc(/C=N/Nc2nc(Nc3ccc(C)cc3)nc(-n3nc(C)cc3C)n2)cc(OC)c1OC | inconclusive [activator, partial curve] |  |
| COc1ccc(O)c(/C=N/NC(=O)c2c(C)nnn2-c2nonc2N)c1 | inactive |  |
| CC1=NN(c2ccc(F)cc2)C(=O)C1C(c1cccc(O)c1)c1c(C)[nH]n(-c2ccc(F)cc2)c1=O (stereo not drawn) | inconclusive [activator, single point] |  |
| CCN(CC)CCCNC(=O)/C=C/C(=O)O | inconclusive [activator, single point] |  |
| CCCc1cc(-c2n[nH]c(=S)n2CC(C)C)cs1 | inactive |  |
| CC(C)(C)c1ccc(Oc2ccc(NC(=O)c3ccco3)cn2)cc1 | inconclusive [activator, partial curve, poor fit] |  |
| COc1ccccc1NS(=O)(=O)c1ccc2oc(SCc3ccc(F)cc3)nc2c1 | inconclusive [activator, partial curve] |  |
| O=C(CSCC(=O)N1CCCc2ccccc21)Nc1nc(-c2ccccc2)cs1 | inactive |  |
| CC(C)=CCC12Oc3cc(O)ccc3C1(O)Oc1cc(O)c([C@H]3C=C(C)CC(c4ccc(O)cc4O)[C@H]3C(=O)c3ccc(O)cc3O)c(O)c1C2=O (stereo partly drawn) | inconclusive [activator, full curve, poor fit] |  |
| Oc1ccc(/C=N/N(Cc2ccccc2)c2ccccc2)c(O)c1O | inactive |  |
| Cc1ccc(-n2cc(CN(C)Cc3ncc[nH]3)c(-c3cccc(C)c3)n2)cc1 | inconclusive [activator, partial curve, poor fit] |  |
| COc1ccc(OC)c(C(=O)NC2CC(C)(C)Cc3c2cnn3-c2ccccc2)c1 (stereo not drawn) | inconclusive [activator, partial curve, poor fit] |  |
| CCSc1nnc(NS(=O)(=O)c2ccc(OC)cc2)s1 | active: 0.731 µM |  |
| O=c1c(OC2OC(CO)C(O)C(O)C2OC2OC(CO)C(O)C(O)C2OC2OC(CO)C(O)C(O)C2O)c(-c2ccc(O)c(O)c2)oc2cc(O)cc(O)c12 (stereo not drawn) | inactive |  |
| COC(=O)CNC(c1ccccc1)c1cc(Br)ccc1N (stereo not drawn) | inactive |  |
| O=C(CCl)NCc1c(Cl)cccc1-n1cccc1 | active: 18.4 µM |  |
| CCCNC(=O)N1CCCC(C(=O)c2cccc(Cl)c2)C1 (stereo not drawn) | inactive |  |
| Cc1cccc(C(=O)N[C@H](C(=O)Nc2nc3ccccc3[nH]2)C(C)C)c1 | active: 5.8 µM |  |
| CCOC(=O)C1CCN(C(=O)COC(=O)CNC(=O)c2ccc(OC)cc2)CC1 | inconclusive [activator, single point] |  |
| O=C(NCc1ccco1)c1cc([N+](=O)[O-])ccc1N1CCCCC1 | inconclusive [activator, partial curve] |  |
